Source: paper PMC4336329 (PLoS ONE, 2015)
Screen size: about 310,000 compounds; about 2,200 (0.71%) showed an effect of 50% or more. Effects have a minus sign here. The list shows a part of the results.

Target: human ether-à-go-go-related gene (hERG) potassium channel (human, UniProt Q12809)
Experiment: primary screen, population patch clamp on CHO cells stably expressing hERG

Chain of human ether-à-go-go-related gene (hERG) potassium channel (Q12809 whole entry, looked up): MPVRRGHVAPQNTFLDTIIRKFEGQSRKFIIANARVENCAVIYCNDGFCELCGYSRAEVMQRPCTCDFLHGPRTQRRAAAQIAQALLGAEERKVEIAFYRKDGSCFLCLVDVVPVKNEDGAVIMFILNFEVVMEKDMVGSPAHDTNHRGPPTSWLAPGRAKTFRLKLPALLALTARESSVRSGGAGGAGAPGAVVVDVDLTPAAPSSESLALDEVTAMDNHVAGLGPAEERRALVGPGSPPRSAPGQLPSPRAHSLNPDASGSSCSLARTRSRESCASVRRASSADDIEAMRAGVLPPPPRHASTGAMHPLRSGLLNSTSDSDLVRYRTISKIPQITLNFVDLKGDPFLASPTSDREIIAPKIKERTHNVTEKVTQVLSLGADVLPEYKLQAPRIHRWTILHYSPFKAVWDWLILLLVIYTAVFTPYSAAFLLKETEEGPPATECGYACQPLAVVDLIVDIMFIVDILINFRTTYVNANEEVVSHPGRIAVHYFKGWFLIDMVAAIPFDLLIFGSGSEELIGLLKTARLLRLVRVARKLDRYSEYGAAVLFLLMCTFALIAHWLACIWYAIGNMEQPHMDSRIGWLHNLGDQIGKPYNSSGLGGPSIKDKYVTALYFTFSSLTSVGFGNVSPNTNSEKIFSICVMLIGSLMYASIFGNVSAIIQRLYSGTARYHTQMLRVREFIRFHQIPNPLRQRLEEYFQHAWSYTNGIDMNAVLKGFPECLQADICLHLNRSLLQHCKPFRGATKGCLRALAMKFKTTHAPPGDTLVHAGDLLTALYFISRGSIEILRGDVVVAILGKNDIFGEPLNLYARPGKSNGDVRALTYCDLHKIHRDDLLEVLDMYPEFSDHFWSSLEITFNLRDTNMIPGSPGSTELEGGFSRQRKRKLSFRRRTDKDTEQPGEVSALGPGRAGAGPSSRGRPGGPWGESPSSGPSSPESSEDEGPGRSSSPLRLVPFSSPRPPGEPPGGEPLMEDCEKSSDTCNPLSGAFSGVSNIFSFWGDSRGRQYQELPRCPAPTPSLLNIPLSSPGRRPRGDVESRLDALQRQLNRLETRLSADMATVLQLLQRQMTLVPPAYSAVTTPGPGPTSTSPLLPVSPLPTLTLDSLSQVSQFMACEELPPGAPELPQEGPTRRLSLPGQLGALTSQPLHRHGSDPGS

SMILES	hERG current change (%, negative = inhibition) at 1uM
COc1ccc(OC)c(-n2c(C)ccc2-c2ccc(S(C)(=O)=O)cc2)c1	0.856%
COc1ccc(CNC(=O)c2ccc3ccccc3n2)cc1	11.8%
CCCN1CCN(C(=O)c2ccc(CS(=O)c3ccc(F)cc3)o2)CC1 (stereo not shown)	1.81%
N/C(=N\OC(=O)c1cc(Br)ccc1Cl)c1cccnc1	20.2%
COc1cc(OC)cc(OC(=O)C2CCN(C3=NS(=O)(=O)c4ccccc43)CC2)c1	5.96%
CN(CC(=O)c1c(N)n(C)c(=O)n(C)c1=O)c1ccccc1	4.92%
COc1cc(NC(=O)c2c3c(nc4ccccc24)CCC3)cc(OC)c1	3.13%
CC(C)OP(=O)(OC(C)C)C(O)c1ccc2c(c1)OCO2 (stereo not shown)	15.9%
COC(=O)CC1COc2ccccc2N1C(=O)c1ccc(OC)cc1 (stereo not shown)	-1.97%
CN(C(=S)Nc1cccnc1)c1ccc(O)cc1	7.75%
CN1CCN(CCC(=O)N/N=C/C=C2\N(C)c3ccccc3C2(C)C)CC1	2.3%
CCOC(=O)c1[nH]c2cc3c(cc2c1NC(=O)CN1CCCC1)OCO3	8.75%
Cc1ccc(NC(=O)N2CCc3ccccc3C2)cc1C	18.5%
O=C(Nc1ccncc1Cl)c1ccncc1	8.97%
CC(=O)C1=C(C)NC(SCC(=O)c2ccc(Cl)cc2Cl)=C(C#N)C1c1ccco1 (stereo not shown)	1.93%
CCN(CC(=O)Nc1ccc(NC(C)=O)cc1)CC(=O)Nc1cc(C)on1	-6.57%
COC(=O)c1ccc(NC(=O)CN(c2ccc(OC)cc2)S(C)(=O)=O)cc1	6.45%
COc1ccc(/C=N/NC(=O)CSCC(=O)Nc2ccccc2)cc1OC	12.6%
CCN1CCN(Cc2c(O)ccc3c(=O)c(-c4ccccc4OC)coc23)CC1	5.36%
O=C(C1CC(=O)N(C2CCCC2)C1)N1CCN(c2ccccc2F)CC1 (stereo not shown)	10.6%
Cc1cc(C)nc(NC(=O)Cc2ccc(Br)cc2)n1	7.73%
CC(C)COC(=O)C1C(=O)CC(C)(O)C(C(=O)OCC(C)C)C1c1cccnc1 (stereo not shown)	-8.07%
ClC(=C\c1ccccc1)/C=N/N1CCN(c2ccccn2)CC1	3.86%
CC(CC(=O)Nc1ccccc1)NCCCN1CCCC1=O.O=C(O)C(=O)O (stereo not shown)	11.3%
C=CCNC(=O)c1ccccc1NS(=O)(=O)c1ccc(SC)cc1	10.5%
